The record followed here is publication PMC10139999.

Sequences of proteins named here, by UniProt entry; tags and fusion partners are left off.
UniProt Q61616: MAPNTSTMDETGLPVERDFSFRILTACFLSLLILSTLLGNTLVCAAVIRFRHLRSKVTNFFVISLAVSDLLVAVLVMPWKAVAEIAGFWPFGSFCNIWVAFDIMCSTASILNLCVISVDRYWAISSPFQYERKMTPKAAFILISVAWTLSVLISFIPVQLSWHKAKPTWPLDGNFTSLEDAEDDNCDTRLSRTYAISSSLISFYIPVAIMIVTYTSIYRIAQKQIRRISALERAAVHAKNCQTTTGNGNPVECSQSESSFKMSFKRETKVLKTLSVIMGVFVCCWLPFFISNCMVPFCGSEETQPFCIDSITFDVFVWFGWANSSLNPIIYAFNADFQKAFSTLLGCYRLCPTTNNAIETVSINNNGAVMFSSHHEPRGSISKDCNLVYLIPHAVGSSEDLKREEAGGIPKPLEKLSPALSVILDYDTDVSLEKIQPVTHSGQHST
UniProt P61168: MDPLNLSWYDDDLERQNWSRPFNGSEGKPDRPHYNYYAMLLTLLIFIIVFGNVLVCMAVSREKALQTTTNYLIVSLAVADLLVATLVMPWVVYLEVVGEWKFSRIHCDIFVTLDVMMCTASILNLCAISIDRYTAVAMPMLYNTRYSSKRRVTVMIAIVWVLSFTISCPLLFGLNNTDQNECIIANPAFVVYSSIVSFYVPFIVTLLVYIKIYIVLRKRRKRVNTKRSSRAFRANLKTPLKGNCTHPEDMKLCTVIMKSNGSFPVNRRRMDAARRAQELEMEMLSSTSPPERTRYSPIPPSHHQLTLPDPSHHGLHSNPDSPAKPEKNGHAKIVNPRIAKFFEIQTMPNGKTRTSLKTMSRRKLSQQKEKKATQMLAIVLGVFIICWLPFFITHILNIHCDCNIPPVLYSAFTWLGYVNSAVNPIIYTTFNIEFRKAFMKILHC
UniProt P58406: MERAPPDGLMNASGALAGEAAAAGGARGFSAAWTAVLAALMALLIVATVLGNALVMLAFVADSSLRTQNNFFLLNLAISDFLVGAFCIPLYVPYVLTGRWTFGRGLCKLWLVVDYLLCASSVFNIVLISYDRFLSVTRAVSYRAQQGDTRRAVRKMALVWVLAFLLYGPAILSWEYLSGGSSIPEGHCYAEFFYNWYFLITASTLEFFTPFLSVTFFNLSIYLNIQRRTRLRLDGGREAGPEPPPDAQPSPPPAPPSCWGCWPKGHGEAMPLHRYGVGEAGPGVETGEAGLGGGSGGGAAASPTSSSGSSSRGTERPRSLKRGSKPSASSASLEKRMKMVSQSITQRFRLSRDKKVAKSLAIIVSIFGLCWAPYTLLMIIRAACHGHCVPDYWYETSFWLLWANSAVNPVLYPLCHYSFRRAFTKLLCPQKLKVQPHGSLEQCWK
UniProt O55242: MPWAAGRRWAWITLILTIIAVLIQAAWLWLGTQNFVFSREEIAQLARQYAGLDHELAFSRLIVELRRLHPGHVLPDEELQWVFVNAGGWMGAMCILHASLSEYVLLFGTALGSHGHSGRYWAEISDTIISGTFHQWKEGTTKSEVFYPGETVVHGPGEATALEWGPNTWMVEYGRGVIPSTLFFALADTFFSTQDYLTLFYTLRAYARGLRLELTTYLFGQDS

Experiment [1] concerns the target dopamine D1 receptor (mouse (endogenous in striatum)) (UniProt Q61616). Description: co-IP; striatal lysates (500 μg) of naïve C57BL/6J mice in 20 mM Tris-HCl pH 7.4, 0.5% NP-40; precleared, anti-D1R, anti-D2R or anti-H3R antibody or isotype IgG overnight at 4 °C, protein A/G-agarose, three washes with lysis buffer; Western blot. Background: In western blotting, separated proteins are transferred to a membrane and probed.

In experiment [2] the target is dopamine D2 receptor (mouse (endogenous in striatum)) (UniProt P61168). Described as above.
In experiment [3] the target is dopamine D1 receptor (mouse (endogenous in striatum)) (UniProt Q61616). Description: proximity ligation; in situ PLA (Duolink) on free-floating fixed striatal sections of C57BL/6J mice with pairs of primary antibodies; single antibodies as negative controls; red puncta per nucleus.
For experiment [4], the target named is dopamine D2 receptor (mouse (endogenous in striatum)) (UniProt P61168). The description is as above.

These are yes or no findings as the source states them, for the method shown. Binding seen in cells or lysates may run through a third protein. Some binding calls cover weakened binding; strength is not graded here.

Consider “histamine H3 receptor (from UniProt P58406 1-445)”, for which the binding result in experiment [1], in experiment [2], in experiment [3] and in experiment [4] was “binds” in each case.
As to “sigma receptor σ1R (from UniProt O55242 1-223)”, the binding result in experiment [3] and in experiment [4] was “binds” throughout.

B1: sigma receptor σ2R (receptor, UniProt Q8VD00 1-176)
chain: MGALAARRCVEWLLGLYFVSHIPITLFIDLQAVLPPELYPQEFSNLLRWYSKEFKDPLMQEPPVWFKSFLLCELVFQLPFFPIAAYAFFKGSCRWIRIPAIIYAAHTITTLIPILYTLLFEDFSKAVAFKGQRPESFRERLTLVGVYAPYLIIPLILLLFMLRNPYYKYEEKRKKK
Take B1: the binding entry in experiment [3] is reported as “binds”; in experiment [4], “no binding”.
